A lower IC50 marks a more sensitive line; a limit (>, <) means that the fit lies beyond the doses tested. For AUC the same curve is integrated over the 256-fold range of doses and scaled to a fraction; it is 1 without any effect and falls as sensitivity rises. For part of these data: Where the top dose is marked as inferred, it was derived from the fitted curves, not read from the paper. For part of these data: Drugs with an entry number were screened twice under separate entries, and the two screens often disagree.
Key:
Assay in all cases: Viability of human cancer cell lines after 72 h of drug (GDSC screen)
Zibotentan = compound: COc1nc(C)cnc1NS(=O)(=O)c1cccnc1-c1ccc(-c2nnco2)cc1 [Zibotentan]; settings: top dose 20 µM; top dose inferred
Description: (§1)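 Human cancer cell lines in 384-well plates, medium with 10% serum, drug for 72 h over a 256-fold dose range (nine 2-fold or five 4-fold steps up to the top dose). Adherent lines were fixed and stained with the nucleic acid dye Syto60, suspension lines read with resazurin; signal relative to control wells, capped at 0 and 100%. One two-parameter sigmoid per drug and line, fitted in a mixed model over all curves with the slope shared within a line.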

(5Z)-7-Oxozeaenol = compound: COc1cc(O)c2c(c1)/C=C/C[C@H](O)[C@H](O)C(=O)/C=C\C[C@H](C)OC2=O [(5Z)-7-Oxozeaenol]; settings: top dose 10 µM; top dose inferred
Description: as §1

MPS-1-IN-1 = compound: COc1cc(N2CCC(O)CC2)ccc1Nc1cc(Nc2ccccc2S(=O)(=O)C(C)C)c2cc[nH]c2n1 [MPS-1-IN-1]; settings: top dose 20 µM; top dose inferred
Description: as §1

KU-55933 = compound: O=c1cc(-c2cccc3c2Sc2ccccc2S3)oc(N2CCOCC2)c1 [KU-55933]; settings: top dose 10 µM
Description: as §1

QL-X-138 = compound: C=CC(=O)Nc1cc(-n2c(=O)ccc3cnc4ccc(-c5cn[nH]c5)cc4c32)ccc1C [QL-X-138]; settings: top dose 10.24 µM; top dose inferred
Description: as §1

CHIR-99021 = compound: Cc1cnc(-c2cnc(NCCNc3ccc(C#N)cn3)nc2-c2ccc(Cl)cc2Cl)[nH]1 [CHIR-99021]; settings: top dose 10 µM; screen: GDSC drug entry 1241; top dose inferred
Description: as §1

ABT-869 = compound: Cc1ccc(F)c(NC(=O)Nc2ccc(-c3cccc4[nH]nc(N)c34)cc2)c1 [ABT-869]; settings: top dose 1.024 µM; top dose inferred
Description: as §1

Cytarabine = compound: Nc1ccn([C@@H]2O[C@H](CO)[C@@H](O)[C@@H]2O)c(=O)n1 [Cytarabine]; settings: top dose 2 µM
Description: as §1

GSK269962A = compound: CCn1c(-c2nonc2N)nc2cnc(Oc3cccc(NC(=O)c4ccc(OCCN5CCOCC5)cc4)c3)cc21 [GSK269962A]; settings: top dose 5 µM; screen: GDSC drug entry 1192; top dose inferred
Description: as §1

CP466722 = compound: COc1cc2ncnc(-n3nc(-c4ccccn4)nc3N)c2cc1OC [CP466722]; settings: top dose 16 µM; top dose inferred
Description: as §1

ABT-888 = compound: C[C@]1(c2nc3c(C(N)=O)cccc3[nH]2)CCCN1 [ABT-888]; settings: top dose 5 µM; top dose inferred
Description: as §1

Cell Line	AUC (Zibotentan)	IC50 (Zibotentan) [µM]	AUC ((5Z)-7-Oxozeaenol)	IC50 ((5Z)-7-Oxozeaenol) [µM]	AUC (MPS-1-IN-1)	IC50 (MPS-1-IN-1) [µM]	AUC (KU-55933)	IC50 (KU-55933) [µM]	AUC (QL-X-138)	IC50 (QL-X-138) [µM]	AUC (CHIR-99021)	IC50 (CHIR-99021) [µM]	AUC (ABT-869)	IC50 (ABT-869) [µM]	AUC (Cytarabine)	IC50 (Cytarabine) [µM]	AUC (GSK269962A)	IC50 (GSK269962A) [µM]	AUC (CP466722)	IC50 (CP466722) [µM]	AUC (ABT-888)	IC50 (ABT-888) [µM]
OV-7 (ovary, adherent)	0.971	> 20	0.627	1.68	0.934	> 20	0.851	> 10	0.784	7.02	0.828	> 10	0.971	> 1.02	0.791	1.47	0.476	0.26	0.709	5.35	0.923	> 5
OV-17R (ovary, adherent)	0.973	> 20	0.745	4.28	0.908	> 20	0.934	> 10	0.702	3.02	0.952	> 10	0.964	> 1.02	0.701	0.584	0.972	> 5	0.811	13	0.976	> 5
OVCA420 (ovary, adherent)	0.982	> 20	0.853	> 10	0.913	> 20	0.944	> 10	0.964	> 10.2	0.979	> 10	0.979	> 1.02	0.868	> 2	0.855	> 5	0.951	> 16	0.982	> 5
OVK-18 (ovary, adherent)	0.983	> 20	0.65	1.71	0.957	> 20	0.888	> 10	0.955	> 10.2	0.984	> 10	0.983	> 1.02	0.517	0.14	0.87	> 5	0.922	> 16	0.958	> 5
PEO1 (ovary, adherent)	0.98	> 20	0.43	0.398	0.914	> 20	0.964	> 10	0.987	> 10.2	0.975	> 10	0.982	> 1.02	0.551	0.174	0.851	4.07	0.76	5.84	0.987	> 5
QGP-1 (pancreas, adherent)	0.967	> 20	0.861	> 10	0.829	> 20	0.97	> 10	0.723	4.14	0.969	> 10	0.972	> 1.02	0.952	> 2	0.903	> 5	0.918	> 16	0.959	> 5
RCC-AB (kidney, adherent)	0.966	> 20	0.556	0.932	0.907	> 20	0.936	> 10	0.447	0.44	0.912	> 10	0.973	> 1.02	0.947	> 2	0.953	> 5	0.721	5.23	0.979	> 5
RCC-FG2 (kidney, adherent)	0.981	> 20	0.78	5.32	0.961	> 20	0.839	9.72	0.789	5.96	0.84	9.81	0.974	> 1.02	0.648	0.36	0.932	> 5	0.831	14.1	0.974	> 5
RCC-JW (kidney, adherent)	0.986	> 20	0.394	0.318	0.983	> 20	0.946	> 10	0.191	0.0741	0.643	1.57	0.966	> 1.02	0.646	0.32	0.841	3.62	0.696	3.62	0.986	> 5
SK-MG-1 (glioma, adherent)	0.985	> 20	0.7	2.3	0.957	> 20	0.977	> 10	0.916	> 10.2	0.976	> 10	0.97	> 1.02	0.68	0.401	0.933	> 5	0.987	> 16	0.985	> 5
SNU-61 (large intestine, adherent)	0.972	> 20	0.983	> 10	0.833	19	0.985	> 10	0.821	8.62	0.983	> 10	0.963	> 1.02	0.951	> 2	0.977	> 5	0.811	12.1	0.985	> 5
SNU-81 (large intestine, adherent)	0.982	> 20	0.735	3.77	0.982	> 20	0.906	> 10	0.677	2.38	0.972	> 10	0.973	> 1.02	0.846	> 2	0.93	> 5	0.691	4.17	0.756	2.26

Source: the supplement of paper PMC4967469
